Source: PubChem BioAssay AID1240 (Sanford-Burnham Center for Chemical Genomics, 2008)
The whole screen tested about 50,000 compounds, of which about 800 (1.6%) showed an effect of 50% or more. The list shows a part of the results.

Each compound was assayed against Bcl-2-like protein 10 (Homo sapiens) (UniProt Q9HD36) (assay: Phenotype converters, Bcl-B/TR3 peptide binding displacement, primary biochemical FP (AID 1240;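 further: 0% = Bcl-B with tracer peptide and DMSO and 100% = tracer peptide lacking Bcl-B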)). Settings: GST-Bcl-B / FITC-TR3 peptide fluorescence polarization; stronger effect = higher value; compound at 3.75 mg/L.
UniProt Q9HD36, sequence (Q9HD36 whole entry, looked up): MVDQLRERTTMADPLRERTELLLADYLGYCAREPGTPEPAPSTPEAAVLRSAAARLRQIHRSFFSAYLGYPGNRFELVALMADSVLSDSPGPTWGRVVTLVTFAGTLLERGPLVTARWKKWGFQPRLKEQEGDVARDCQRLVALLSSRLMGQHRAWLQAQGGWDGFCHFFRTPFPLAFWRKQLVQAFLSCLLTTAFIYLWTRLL

SMILES | displacement [%]
COC(=O)c1ccc(C(=O)OC)c(NC(=O)COc2cccc(Br)c2)c1 | 27
CCOC(=O)C1=C(C)N=c2s/c(=C\c3cc(OC)ccc3OC)c(=O)n2C1c1ccc(F)cc1 (centres undefined) | 12.9
COc1ccc(N2C(=O)S/C(=C/c3cccc(Br)c3)C2=O)cc1 | 10.3
CN(C)c1cccc(C(=O)N2CCN(c3ccc(F)cc3)CC2)c1 | 9
CC(=O)C(=Nc1ccc(C)cc1C)NNc1ccc(Cl)c(C(N)=O)c1 | 0.8
CCC1C(=O)N=C(SCC(=O)Nc2nc(-c3ccccc3)cs2)NC1=O (centres undefined) | 10.1
O=C(Nc1cccnc1)c1ccccc1[N+](=O)[O-] | 2.4
COc1cc(/C=C2\SC(=S)N(NC(C)=O)C2=O)cc(OC)c1OC | -16.7
Brc1ccc(Nc2nc(-c3ccncc3)nc3ccccc23)cc1 | 44.4
O=C(c1ccc(-c2ccccc2)cc1)N1CCN(Cc2ccncc2)CC1 | 2.7
O=C(CCc1ccccc1)NC1CCCCC1Cc1ccco1 (centres undefined) | -1.2
CN(C)c1ccc(C(O)Cc2nc3ccccc3n2C)cc1 (centres undefined) | -0.8
CCOc1ccc(C2=C/C(=C/c3ccc(N(C)C)cc3)C(=O)O2)cc1 | 3.3
COc1ccc(N(CC(=O)Nc2ccc(C(C)C)cc2)S(=O)(=O)c2ccc(C)cc2)c(OC)c1 | 11.8
O=C(/C=C/c1ccco1)Nc1cc(Cl)cc(Cl)c1 | -3.2
O=C(CCN1C(=O)/C(=C/c2cccs2)SC1=S)Nc1nc2ccccc2s1 | 10.5
CCOC(=O)COc1ccccc1/C=C1\C(=O)NC(=O)N(c2ccc(Cl)cc2)C1=O | -7.2
O=C1C(=Cc2ccccc2Br)C(=O)c2ccccc21 | 18.1
CCC(C(=O)OC)S(=O)(=O)c1ccc(Cl)cc1 (centres undefined) | 0
COc1cccc(C2C3=C(CC(C)(C)CC3=O)OC3=C2C(=O)CC(C)(C)C3)c1OCC(=O)O | 12.3
Cc1ccc(OCC(=O)NNC(=O)c2ccc(O)cc2O)c(C)c1 | -11.3
C/C(=N/OCC(=O)N/N=C/c1ccccc1NS(=O)(=O)c1ccc(C)cc1)c1ccccc1 | 5

SMILES | displacement [%]
COC(=O)c1cccc(-n2c(C)ccc2-c2ccccc2)c1 | -15.6
O=C1CCCC2=C1C(c1ccc(F)cc1)C1=C(CCCC1=O)O2 | 11.2
CC1=C(C(=O)OCC2CCCO2)C(c2cccc([N+](=O)[O-])c2)NC(=O)N1 (centres undefined) | -3.4
O=C(CSc1nnnn1-c1ccccc1)Nc1ccccc1Br | -1.9
O=C1C(=O)N(CC2CCCO2)C(c2ccc([N+](=O)[O-])cc2)/C1=C(/O)c1ccccc1 (centres undefined) | 6.5
CCOC(=O)c1c(C)oc2ccc(OC(=O)C(C)C)cc12 | 6.2
COc1ccc(C2(CC(=O)Nc3ccc(Br)cc3)C(=O)c3ccccc3C2=O)cc1 | -12.9
O=C1NC(=O)N(c2ccc(Cl)cc2)C(=O)/C1=C/c1cc(Br)c(O)c([N+](=O)[O-])c1 | 14.7
COC(=O)c1ccc(/C=C2\C(=O)NC(=O)N(c3ccc(Br)cc3)C2=O)cc1 | -14.7
COc1ccc(/C=N/n2cnnc2)cc1COc1ccccn1 | 12.7
Cc1cccc(N2C(=O)C(=O)/C(=C(/O)c3ccccc3)C2c2ccccc2)n1 (centres undefined) | 10.8
CON(C)c1nc(OCCNC(=O)COc2ccc(Cl)cc2C)nc(N(C)C)n1 | -7.4
COC(=O)c1ccc(/C=C/C(=O)c2ccc(F)cc2)cc1 | -1.9
O=C(CCN1C(=O)/C(=C/c2cccs2)SC1=S)Nc1cccnc1 | 135
O=C(O)c1ccc(C(=O)O)c(C(=O)NCCc2ccccc2)c1 | 13.8
COc1ccc(CNC(=O)C(=O)Nc2ccccc2C)cc1 | 5.8
Cc1ccc(Cl)cc1NC(=O)c1cnccn1 | 29
C=CCc1cccc2cc(C(=O)N(Cc3ccccc3)Cc3ccccc3)c(=O)oc12 | -2.6
COc1cc(OC)c(OC)cc1CN1CCN(C2CCCCCC2)CC1 | -3.5
O=C(Nc1cccc(Cl)c1)c1cccc(NC(=S)Nc2ccccc2)c1 | -8
CCOC(=O)c1ccc2c(c1)c1c(n2CC)C(=O)CCC1 | 9
CC(=O)N1CC[C@@]2(O)CCCC[C@@H]2[C@H]1c1ccccc1 | -14.4

SMILES | displacement [%]
Cc1ccc(S(=O)(=O)NCCNc2cc(Cl)ccc2[N+](=O)[O-])cc1 | 7.8
CCc1cc2c3c(c(=O)oc2cc1O)CCCC3 | -5.8
COc1cccc(C2NC(=S)NC(C)=C2C(=O)Nc2ccccc2C)c1OC (centres undefined) | 3.2
CN(C)c1ccc(/C=N/Nc2ccc(C(F)(F)F)cn2)cc1 | 1.7
CCCS(=O)(=O)c1c(S(=O)(=O)CCC)c2cc(-c3ccncc3)ccn2c1C(=O)c1ccc(OC)cc1 | 6.6
O=c1oc2cc(OC/C=C/c3ccccc3)ccc2c2ccccc12 | 9.1
COC(=O)c1c(-c2ccc(C)c(C)c2)csc1N | 13.9
O=C1OC(Nc2cccc(Br)c2)(c2ccccc2)c2ccccc21 (centres undefined) | 6.8
O=C(NCc1ccccc1)c1ccc(CN2CCN(Cc3ccccc3)CC2)cc1 | 10
CCOc1ccccc1NC(=O)C(=O)NCCCO | -10.9
O=C(O)CCCN1C(=O)C(=O)/C(=C(/O)c2ccccc2)C1/C=C/c1ccccc1 (centres undefined) | 2.1
O=C(NN1C(=O)/C(=C/c2ccc([N+](=O)[O-])cc2)SC1=S)c1ccccc1Cl | 9.3
CNc1nc2ccc(C)cn2c(=O)c1/C=N/O | 11
CCSc1nnc(NC(=O)c2ccco2)s1 | 5.8
O=C1NC(=S)N/C1=C/c1ccc(O)c(Cl)c1 | 16.5
Cc1cc(C)nc(SCC(=O)N2CCCCC2)n1 | -5.9
Cc1cc2ncn(C(=O)c3ccc([N+](=O)[O-])c(C)c3)c2cc1C | 12.6
COc1cc(/C=C2/SC(=S)NC2=O)cc(Cl)c1O | -1.9
COc1cc(/C=N\N2CCN(c3ccccc3)CC2)cc(Br)c1O | -7.7
O=C(Nc1ccc2nn(-c3ccc(F)cc3)nc2c1)c1cc(Cl)ccc1Cl | -5.8
Cc1cccc(NC(=O)c2sc3ccccc3c2Cl)c1C | -1.5
Cc1ccc(N=Cc2ccc(O)c(O)c2)c(C)c1 | -7.2

SMILES | displacement [%]
Cc1ccc(-c2ccccc2)n1-c1ccc(Cl)c(C(=O)O)c1 | -41.6
O=C1NC(=O)C(=Cc2ccccc2OCc2ccccc2F)C(=O)N1 | 15.2
CC1(C)CC(NC(=O)C(=O)Nc2ccc3c(c2)OCO3)CC(C)(C)N1 | -0.4
O=C(c1ccc(-c2ccccc2)cc1)N1N=C(c2ccccc2)CC1(O)C(F)(F)F (centres undefined) | -13.4
O=C(CSc1nc2ccccc2[nH]1)NC(c1ccccc1)c1ccccc1 | -1.7
CC1CCc2c(sc3nc(-c4cccs4)oc(=O)c23)C1 (centres undefined) | 3
O=S(=O)(NC1CCCCCC1)c1ccc(F)cc1 | -1.9
COc1cc(OC)cc(C(=O)N2CCN(CCCc3ccccc3)CC2)c1 | -7.8
COc1ccc(NC(=O)CCN2C(=O)/C(=C/c3ccc(F)cc3)SC2=S)cc1 | 12.3
COCCNC(=O)C(=O)Nc1ccc(C(C)C)cc1 | -13
Cc1ccc(OCc2nc(-c3cccc([N+](=O)[O-])c3)no2)c(Br)c1 | -0.5
COc1ccc(-c2cc(C(=O)N3CCCC3)c3ccccc3n2)c(OC)c1 | 2.1
CC(C)(C)c1ccc(C(=O)NNC(=O)C(=O)Nc2ccccc2)cc1 | -9.3
CS(=O)(=O)N(CC(=O)NCc1cccnc1)c1ccc(Oc2ccccc2)cc1 | 0.4
CC1(C)CC(=O)c2nc(NC(=O)CSC(=O)c3ccccc3)sc2C1 | 11.1
COC(=O)c1ccccc1N(Cc1ccccc1)S(=O)(=O)c1ccc(OC)cc1 | 10.9
O=C(NC(=S)Nc1cccc(-c2nc3cc(Cl)ccc3o2)c1)c1ccco1 | 12.6
CCOc1ccc(C(=O)NCCc2ccccc2)cc1 | 5.2
NS(=O)(=O)c1cccc(NC(=O)c2cccnc2)c1 | -12.7
COc1ccc(Br)cc1/C=C/C(=O)Nc1ccc(NC(=O)c2ccccc2)cc1 | 2.7
Cc1c(C(=O)NC2CCSC2=O)cccc1[N+](=O)[O-] (centres undefined) | -3.2
CCNC(=O)C1COc2ccccc2O1 (centres undefined) | 3.8

SMILES | displacement [%]
CCOc1cc(/C=C2\C(=O)NN(c3ccccc3)C2=O)cc([N+](=O)[O-])c1O | 20.6
CCOC(=O)C1=C(C)N=c2s/c(=C/c3cc(Cl)c(OCC(=O)O)c(OC)c3)c(=O)n2C1c1ccccc1Cl (centres undefined) | 32.4
COc1ccc(CNC(=O)C(=O)Nc2ccccc2F)cc1 | -6.6
CCCC(=Nc1ccc(OC)cc1)C1=C(O)CC(C)(C)CC1=O | -0.9
O=C(NC1CCCCC1)O/N=C\c1ccccc1Cl | 12.6
CC1CCN(CC(O)COc2ccc(OCC(O)CN3CCC(C)CC3)cc2)CC1 (centres undefined) | 4.5
O=C(O)CCCCCN1C(=O)C(=O)/C(=C(/O)c2ccc([N+](=O)[O-])cc2)C1c1ccc2c(c1)OCO2 (centres undefined) | -1.1
Cc1c(C(=O)OC(C)C)sc(NC(=O)c2cc(Cl)ccc2Cl)c1C(=O)OC(C)C | 10
O=C(/C=C/c1ccccc1)Nc1ccc(S(=O)(=O)N2CCOCC2)cc1 | -13.6
O=C(Nc1ccc(O)c(-c2nc3ccccc3o2)c1)c1ccc(-c2ccc([N+](=O)[O-])cc2)o1 | -0.4
O=C(O)c1ccccc1/C=N/n1cnnc1 | 7.6
O=C(Nc1ccc(Cl)cc1)Nc1ccc([N+](=O)[O-])cc1Br | 3.9
O=C(NCCN1CCOCC1)c1ccc(F)cc1 | -7.8
CCn1nnnc1-c1ccc(OC)c(S(=O)(=O)Nc2cccc(C(F)(F)F)c2)c1 | 9
COC(=O)C1=CN(Cc2ccc(C)cc2)C=C(C(=O)OC)C1c1ccc(OC(F)(F)F)cc1 | 4.7
Cc1ccc(/C=N/NC(=O)c2ccc(Oc3ccc(C(=O)N/N=C/c4ccc(C)o4)cc3)cc2)o1 | 3.9
Cc1ccc(Cc2cnc(NC(=O)Cc3ccccc3)s2)cc1 | 3.9
O=c1oc(-c2ccc(Cl)cc2Cl)nc2ccccc12 | 11.4
CC(C)c1ccc(CNC(=O)CSc2nc3ccccc3[nH]2)cc1 | -8.9
CC(C)C(=O)NC(=S)N1CCOCC1 | 9
O=C(O)c1cc(-c2ccc(Cl)cc2)nc2ccc(Br)cc12 | -8
